Over roughly 33,000 sequences, “E-score (-0.5 to 0.5)” has its median near -0.032; the highest 2% begin near 0.36. The list shows a part of the results.
target: T1, Sko1 (UniProt Q02100); experiment: PBM E-score (8-mer binding enrichment) (E-score (-0.5 to 0.5)); higher = stronger / more preferred TF binding; most listed sequences are background and not binding sites; conditions: protein concentration: 200 nM; construct: GST-full length
T1 sequence: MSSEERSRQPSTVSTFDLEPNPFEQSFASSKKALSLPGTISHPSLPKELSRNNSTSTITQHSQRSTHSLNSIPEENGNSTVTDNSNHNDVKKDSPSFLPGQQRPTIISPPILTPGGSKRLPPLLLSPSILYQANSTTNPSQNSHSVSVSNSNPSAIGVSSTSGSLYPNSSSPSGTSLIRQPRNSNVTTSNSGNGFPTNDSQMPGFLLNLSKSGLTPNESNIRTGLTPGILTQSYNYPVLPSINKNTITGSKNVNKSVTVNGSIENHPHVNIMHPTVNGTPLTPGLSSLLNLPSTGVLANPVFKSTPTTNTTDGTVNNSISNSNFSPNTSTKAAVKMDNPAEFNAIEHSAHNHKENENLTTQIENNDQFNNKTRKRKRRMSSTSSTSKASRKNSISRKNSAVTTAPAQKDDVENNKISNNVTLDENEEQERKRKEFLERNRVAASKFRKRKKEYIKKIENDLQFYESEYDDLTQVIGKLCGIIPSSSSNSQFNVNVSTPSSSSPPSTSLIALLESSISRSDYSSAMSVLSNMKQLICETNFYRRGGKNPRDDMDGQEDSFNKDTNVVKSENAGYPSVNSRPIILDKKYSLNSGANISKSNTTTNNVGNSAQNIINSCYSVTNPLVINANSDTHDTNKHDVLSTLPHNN
Method in brief: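 Detection of bound protein used fluorescent anti-GST, with scans normalised by masliner. The proteins were GST-tagged yeast transcription factors applied at about 100-200 nM to universal all-10-mer Agilent arrays made double-stranded by primer extension. Each ungapped eight-base word, pooled with its reverse complement, was scored with an E-score from the Universal PBM Analysis Suite.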

Sequence | PBM E-score
CCAATAGA | 0.0131
CGATACCA | -0.0529
GGGTATAA | -0.141
CGGTAGCC | 0.0295
CTGACTAA | 0.0646
GAAGAATC | -0.116
CTGTATCA | -0.0332
ATTGTTGG | 0.0374
AGTGGGAA | -0.0872
CACTCTGA | -0.102
CAGTTCGA | -0.0737
GACTACCA | 0.011
CCGGGTAA | -0.035
GAGGCTGC | -0.261
CGAGCCCC | -0.269
AGCACTAG | -0.12
CTGATATA | 0.0369
GCAGATAC | 0.0583
GTTCATCA | 0.18
CGATCACC | -0.165
ACGACTCT | 0.0416
CTGCGAAA | 0.00058
AGCTGACT | -0.112
CTGTAGTA | 0.145
CATCTGGA | -0.163

Sequence | PBM E-score
CCGGCGTA | -0.071
GATTTTTA | 0.0461
CCTTCGAG | -0.285
AACGTGCA | 0.191
GATAGCCC | -0.23
ACGCAACT | 0.355
CTTGGATC | -0.116
CGGTGGAA | -0.188
AGGGAAAG | -0.115
GAAGATAA | 0.167
CAAGTCAG | -0.256
AACTTAAG | -0.018
GAACTGCC | -0.29
ATGGAGTC | -0.127
GACCGATA | -0.0548
ATCTGCGA | -0.218
CCCGATCG | 0.00394
ACTGTGGA | -0.205
AGGGAGGA | -0.143
GATCCGCC | -0.163
CGCCTGAC | 0.0438
GTCGAGCA | -0.217
ATTCCCTG | -0.109
GTAGCTAC | 0.245
AATGGTCC | -0.021

Sequence | PBM E-score
CCGCCTAG | -0.249
AGCAGTAG | -0.327
AAGCGCAA | 0.0809
AGACCAGA | -0.116
ATTGCTAA | 0.301
CACATTAG | -0.0351
CGGAACTA | -0.061
GGATATCC | -0.123
AGACGACT | -0.159
GAATATCC | -0.048
CGTTAGAA | 0.124
ACTTCCTA | -0.0848
AGCGCGTC | 0.0596
ACACTAAA | 0.0448
GCAGCACC | -0.29
CTGGGTCC | -0.377
CCATGTCC | -0.0817
GGCCGCAA | -0.283
CGAACGTA | 0.361
AATGTCGT | 0.371
ACGGACCC | -0.248
GCGAACCC | -0.178
AGAAAACT | 0.0824
AGAGACAC | -0.0779
ACGTAAAT | 0.463

Sequence | PBM E-score
AGCCCGGA | -0.394
CATATTGA | 0.237
CAAACGCA | 0.0771
CATTGGAG | -0.0301
CATCTAAC | 0.107
CGGTGCTA | -0.103
GTAACTAA | 0.175
CGGGTGCA | -0.272
CAATGGCC | -0.287
CAGTGGGC | -0.221
GACATCAC | 0.382
CCCCTGCA | -0.246
AATGACTC | 0.121
GACTTGCC | -0.236
AATGACAG | 0.0139
ACAAGAGA | -0.165
CTAGGCAA | -0.172
ATACATTC | 0.0872
CATCACGA | 0.213
CTCTGTCC | -0.138
AACGTGGG | 0.192
CAATGTTC | -0.0771
CCTCTCGA | -0.15
ATGCTCTG | -0.122
AGCATCCG | -0.0661

Sequence | PBM E-score
ACGGCGCC | -0.138
GGATTGTA | -0.0509
ACCTACGT | 0.444
CAACCCTG | -0.0654
CTACGAAG | -0.0419
GGGACTTA | -0.216
GCGCATGA | -0.0645
CATGCACA | 0.154
ATCGCACA | 0.0449
ACATTAAA | 0.226
CCTGTATA | -0.212
CGTACTCC | 0.201
CCTATTTC | 0.0978
ACCCTATC | -0.204
TCTGAGCA | -0.0291
GAGACGTA | 0.394
ATTTGGAG | -0.136
CGACAGGA | -0.0281
AAGCTTAG | 0.107
ACCGATCG | -0.0301
AGTCATAT | 0.196
GTCAGCCA | 0.0567
ACACTACC | -0.0597
TACCTCCA | -0.134
AGTGCTAA | -0.0114

Sequence | PBM E-score
GCGCGGTA | 0.0303
AGGGATTG | -0.0515
CAACAAGC | 0.0492
ATATAGGC | 0.0084
ACCGAAAA | 0.103
GGGTGCTA | -0.196
GGGGCTAA | -0.118
AACCTTAA | 0.0114
AAAGTCTC | -0.209
GCAATTGC | 0.275
TGATTTAA | 0.166
CCACGTGA | 0.339
ACAGCGAG | -0.123
GTGTCACA | 0.165
CCAGGGAA | -0.128
ACGTTACC | 0.297
TGGGTTAA | 0.00424
CGATGGGA | -0.0417
ACACCTGG | -0.173
GAAGGTCC | -0.0613
ATGGTTCG | -0.045
GGTCAATA | -0.0209
ACGTACAG | 0.415
ACGACGCG | 0.148
GCAGCAGC | -0.136

Sequence | PBM E-score
GCACATCA | 0.243
TAGACTAA | -0.023
AGGAGATG | -0.109
CACTGTGG | -0.226
GGGCCAAA | -0.155
CGTTGATA | 0.0932
GTTCCAGA | -0.0401
ATTCAATC | 0.0562
CCGGAAGA | -0.197
AGTAAGGC | -0.0198
GAGTTGGC | -0.093
CCCCAATA | 0.00031
AAACCATC | 0.00731
AACCGACG | 0.153
AGTTCTAA | -0.00262
AGTGACTC | -0.0159
CATACGCC | 0.182
ACCACGCA | 0.22
CTAGTGTC | -0.191
AATTAATT | 0.244
AGGACGTG | 0.153
GTTCTCGA | 0.117
AGGCCCCC | -0.414
GTTCGATA | 0.105
TAAGTCGA | -0.0795

Sequence | PBM E-score
ATCCGGGC | -0.189
AATCCCCG | -0.246
AAAGGTCC | -0.147
AGAGAGTG | -0.246
ACCTTGGA | -0.0689
CTGGATAA | -0.0232
GCTTTTTA | -0.0182
ACTTATGA | 0.142
ACGTGAGA | 0.286
ACCTCCAG | -0.264
CGACAGGC | -0.157
ACGGGTAG | -0.0283
ATGTACGA | 0.143
CAGGAACG | 0.131
AAAAGCGT | -0.00161
AAGCTATC | 0.0359
GCCATGAC | 0.356
GTAATTCA | 0.268
CTGAGAGA | -0.0633
ATCAGTGC | 0.0335
GTAACCGA | 0.00384
ATGAAGTG | 0.0412
ACCGCAAT | -0.00014
CATCTTGC | -0.0884
CCACAGCA | -0.0339

Sequence | PBM E-score
AGCGTAAA | 0.189
ATGCTAAA | 0.0827
CAAAAATC | 0.131
AACACGCG | 0.222
AAAATTTG | 0.198
GGTGCGTA | 0.299
ATGGTGTA | 0.161
GGAGCACA | 0.00796
AGCGCTCC | -0.146
GCGGATCA | -0.136
TCTCACCA | -0.00275
CATATGCC | 0.122
ATTTGCCA | -0.0379
AGATAACT | -0.00913
AAGGGCCC | -0.197
ATCACGCG | 0.254
AAAAGGTG | -0.141
ATACTAGG | -0.0879
GATGATAA | 0.19
